Consider one substance from paper PMC10761038.

Amino acid sequences for entries named in this document (tags omitted).
UniProt P35221: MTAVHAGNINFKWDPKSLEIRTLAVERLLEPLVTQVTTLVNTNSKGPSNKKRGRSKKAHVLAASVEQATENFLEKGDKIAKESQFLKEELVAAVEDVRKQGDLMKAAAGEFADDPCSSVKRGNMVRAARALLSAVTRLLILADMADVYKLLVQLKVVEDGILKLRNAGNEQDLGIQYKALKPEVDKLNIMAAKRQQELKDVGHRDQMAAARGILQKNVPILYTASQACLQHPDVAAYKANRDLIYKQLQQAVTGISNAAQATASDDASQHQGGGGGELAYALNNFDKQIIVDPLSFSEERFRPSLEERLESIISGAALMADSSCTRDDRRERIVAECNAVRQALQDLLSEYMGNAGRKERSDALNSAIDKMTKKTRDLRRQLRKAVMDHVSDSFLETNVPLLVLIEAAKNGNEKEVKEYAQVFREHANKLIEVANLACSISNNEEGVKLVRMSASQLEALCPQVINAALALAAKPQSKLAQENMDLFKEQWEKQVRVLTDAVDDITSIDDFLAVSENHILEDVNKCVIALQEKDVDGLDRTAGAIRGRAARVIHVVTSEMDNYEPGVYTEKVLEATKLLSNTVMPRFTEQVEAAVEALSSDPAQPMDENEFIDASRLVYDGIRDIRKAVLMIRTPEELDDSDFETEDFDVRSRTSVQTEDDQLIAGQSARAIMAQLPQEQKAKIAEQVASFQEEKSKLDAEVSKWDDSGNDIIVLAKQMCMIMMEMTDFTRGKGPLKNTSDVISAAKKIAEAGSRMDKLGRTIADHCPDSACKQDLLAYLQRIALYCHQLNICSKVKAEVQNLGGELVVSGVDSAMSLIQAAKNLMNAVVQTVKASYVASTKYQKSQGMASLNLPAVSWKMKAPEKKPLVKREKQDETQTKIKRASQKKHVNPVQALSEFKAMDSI

No constants are given. Whether binding was seen depends on the method and setting. In cells and extracts the contact can be indirect. Some entries that bind do so weakly or less than the wild type.

For the test, the target named is T1, Neon-Lgl1-S6A (UniProt Q80Y17).
T1 sequence: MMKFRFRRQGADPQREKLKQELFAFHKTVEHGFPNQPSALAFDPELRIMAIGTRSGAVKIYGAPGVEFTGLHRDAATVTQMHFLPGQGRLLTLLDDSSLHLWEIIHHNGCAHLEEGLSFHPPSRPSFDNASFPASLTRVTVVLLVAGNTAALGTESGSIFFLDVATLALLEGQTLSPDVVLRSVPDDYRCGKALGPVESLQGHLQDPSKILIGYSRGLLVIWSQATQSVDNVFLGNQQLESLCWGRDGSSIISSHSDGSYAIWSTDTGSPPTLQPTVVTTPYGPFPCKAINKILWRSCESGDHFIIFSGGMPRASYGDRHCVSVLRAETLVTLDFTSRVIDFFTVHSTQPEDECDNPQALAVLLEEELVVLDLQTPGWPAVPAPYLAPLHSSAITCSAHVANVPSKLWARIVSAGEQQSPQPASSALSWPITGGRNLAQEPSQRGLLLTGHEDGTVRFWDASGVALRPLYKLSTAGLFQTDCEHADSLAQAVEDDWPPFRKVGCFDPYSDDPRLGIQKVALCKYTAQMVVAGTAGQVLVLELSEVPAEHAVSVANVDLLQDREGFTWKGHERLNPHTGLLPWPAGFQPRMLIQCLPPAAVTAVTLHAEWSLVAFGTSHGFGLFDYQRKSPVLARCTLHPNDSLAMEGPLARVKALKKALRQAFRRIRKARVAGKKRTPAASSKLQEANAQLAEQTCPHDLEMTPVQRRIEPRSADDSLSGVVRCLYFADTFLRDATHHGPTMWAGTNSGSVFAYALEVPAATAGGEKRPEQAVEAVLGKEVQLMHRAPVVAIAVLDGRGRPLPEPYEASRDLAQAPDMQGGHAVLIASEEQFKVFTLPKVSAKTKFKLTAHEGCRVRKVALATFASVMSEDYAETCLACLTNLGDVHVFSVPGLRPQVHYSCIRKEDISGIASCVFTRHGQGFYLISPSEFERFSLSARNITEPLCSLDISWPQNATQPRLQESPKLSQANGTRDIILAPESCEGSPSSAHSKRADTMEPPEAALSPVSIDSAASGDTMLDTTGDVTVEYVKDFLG
The test is described as follows: co-IP; A549 cell lysates (parental, stably expressing GFP-Scrib or Neon-Lgl1 forms, or tet-shLgl1 without Dox) in NP-40 buffer (20 mM Tris pH 8, 150-200 mM NaCl, 0.5 mM EDTA, 1% NP-40, 1 mM DTT, 5% glycerol); antibody 2 h at 4°C, protein A/G beads, three washes, Western blot; IgG as negative ….

“α-catenin (endogenous) (from UniProt P35221 1-906)”: the binding result is “binds”.
